# PubChem BioAssay AID1768 (National Center for Advancing Translational Sciences (NCATS), 2009)
# The whole screen tested about 270,000 compounds, of which about 620 (0.23%) were called active. The inconclusive results got no clear call from the source; some entries with a clear call stand among them for comparison. Calls follow the shape of the dose curve; as a rule, active = well fitted inhibition curve with a large enough effect in the polarisation, with a control signal flat (not every such curve was filed as active); inconclusive = small, poorly fitted or top-dose-only effect, or effect the other way, or a change in a side signal; inactive = no such curve, though single readings can be large or run the other way; the % refers to the polarisation. A potency beside an inconclusive call is a rough fit, not a confirmed value. A note “side channel” means that the fit belongs to a control or component signal, not to the main read-out.
# Target: Menin (Homo sapiens) (UniProt O00255)
# Test: qHTS Assay for Inhibitors Targeting the Menin-MLL Interaction in MLL Related Leukemias: Competition With Texas Red Labeled MLL-derived Mutant Peptide; as to FP activity change, negative = inhibition: % of control where 0% means no effect
# Details: fluorescence polarization; FP activity change, negative = inhibition: at 61.6 µM (top of the series)
# Potency is read from the fitted curve at half-maximal effect; tags tell the direction and shape of the fitted curve or compound fluorescence and quenching.
# Chain of UniProt O00255 (O00255 whole entry, looked up): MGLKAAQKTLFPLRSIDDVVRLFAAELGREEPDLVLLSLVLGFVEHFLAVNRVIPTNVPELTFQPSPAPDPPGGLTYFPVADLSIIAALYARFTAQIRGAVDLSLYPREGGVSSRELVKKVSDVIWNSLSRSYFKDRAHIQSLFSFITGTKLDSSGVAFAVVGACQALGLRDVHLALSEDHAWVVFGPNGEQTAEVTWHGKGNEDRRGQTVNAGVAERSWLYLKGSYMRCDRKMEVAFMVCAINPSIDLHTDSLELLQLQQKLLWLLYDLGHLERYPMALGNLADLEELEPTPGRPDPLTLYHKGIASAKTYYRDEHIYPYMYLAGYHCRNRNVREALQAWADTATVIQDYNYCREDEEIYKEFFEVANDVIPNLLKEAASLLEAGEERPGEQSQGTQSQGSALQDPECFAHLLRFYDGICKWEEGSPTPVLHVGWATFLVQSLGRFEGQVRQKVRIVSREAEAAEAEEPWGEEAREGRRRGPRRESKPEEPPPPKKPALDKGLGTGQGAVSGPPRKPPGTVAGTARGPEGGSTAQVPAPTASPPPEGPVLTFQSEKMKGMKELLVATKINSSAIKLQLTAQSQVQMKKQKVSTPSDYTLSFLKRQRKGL
SMILES,Potency,"FP activity change, negative = inhibition"
COc1ccc(-c2oc3ccccc3c2C(=O)OCc2ccccc2OC)cc1,"inconclusive: 11.2 µM [quencher, side channel, partial curve]",–
O=C(CSc1nnc2n1CCCN2C(=S)Nc1ccc(Cl)cc1)c1ccccc1,"inconclusive: 35.5 µM [inhibitor, single point]",–
CCCCC/C=C\C/C=C\CCCCCCCC(=O)O[C@@H](CO)COC(=O)CCCCCCCCCCCCCCCCC,–,inactive: -6.49%
CC(=O)Nc1ccc(NC(=O)c2ccc(NS(=O)(=O)c3cc(C(C)(C)C)ccc3C)cc2)cc1,"inconclusive: 39.8 µM [fluorescent, single point]",–
CCCCc1ccc(Nc2ncnc3nc[nH]c23)cc1,"inconclusive: 14.1 µM [quencher, side channel, partial curve]",–
COc1ccc(CSc2nnc(NC(C)=O)s2)cc1[N+](=O)[O-],"inconclusive: 28.2 µM [inhibitor, single point]",–
CN(C)/C=C1\C(=O)N(c2ccc([N+](=O)[O-])cc2)N=C1c1ccccc1,"inconclusive: 8.91 µM [quencher, side channel, full curve]",–
CC1CCN(S(=O)(=O)c2nnc(NC(=O)c3cccc([N+](=O)[O-])c3)s2)CC1,"inconclusive: 10 µM [quencher, side channel, partial curve]",–
COc1ccc(-c2nc(-c3ccccc3)c(-c3cc([N+](=O)[O-])ccc3C)[nH]2)cc1O,"inconclusive: 14.1 µM [quencher, side channel, partial curve]",–
CCN(CC)CCN1C(=O)C(=O)/C(=C(/O)c2ccc(S(=O)(=O)N3CCOCC3)cc2)C1c1ccc(C(C)(C)C)cc1 (stereo unspecified),"inconclusive: 11.2 µM [inhibitor, partial curve]",–
CCOc1cc(/C=C(\C#N)C(=O)Nc2cccc(C(=O)O)c2)ccc1OCc1ccccc1Cl,"inconclusive: 7.94 µM [quencher, side channel, single point]",–
COc1cccc2sc(NC(=O)c3ccc(Br)s3)nc12,"inconclusive: 8.91 µM [quencher, side channel, full curve]",–
Cc1nn2c(c1-c1ccc(Cl)cc1)N=C(c1ccco1)CC2c1ccccc1 (stereo unspecified),"inconclusive: 12.6 µM [quencher, side channel, partial curve]",–
NC(=O)c1ccc2c(c1)S(=O)(=O)c1ccccc1C2=O,"inconclusive: 25.1 µM [quencher, side channel, single point]",–
O=C1NC(c2cccc(Br)c2)=N/C1=C\c1ccco1,"inconclusive: 39.8 µM [quencher, side channel, single point]",–
CC(=O)CCc1ccc(OCCCCN2CCC(Cc3ccccc3)CC2)cc1,"inconclusive: 3.55 µM [inhibitor, partial curve, poor fit]",–
Cc1cccc(NC(=O)c2cc(-c3cc(C)cc(C)c3O)n[nH]2)c1,"inconclusive: 8.91 µM [quencher, side channel, full curve]",–
Cc1cc(Br)ccc1NC(=S)Nc1cccc([N+](=O)[O-])c1,"inconclusive: 28.2 µM [quencher, side channel, single point]",–

SMILES,Potency,"FP activity change, negative = inhibition"
Cn1c(C(=O)Nc2ccc3c(c2)OCCO3)cc2sccc21,"inconclusive: 17.8 µM [quencher, side channel, partial curve]",–
COc1ccccc1/C=C/C(=O)OCC(=O)NCCC1=CCCCC1,"inconclusive: 20 µM [fluorescent, side channel, single point]",–
COCCNC(=O)c1cccc(OC2CCN(Cc3ccc(OC(F)F)cc3)CC2)c1,–,inactive: -17.7%
Cc1ccc(C)c(CN2C(=O)C3CCCN3c3ccc(S(=O)(=O)N4CCOCC4)cc32)c1 (stereo unspecified),–,inactive: -22.1%
C#CCOCCOCCOCCNc1nc(N2CCN(C(=O)[C@H]([C@@H](C)CC)n3cc([C@@H](N)Cc4ccc(O)cc4)nn3)CC2)nc(N2CCN(C(=O)[C@H](CCCCN)n3cc([C@@H](N)CC(C)C)nn3)CC2)n1,"inconclusive: 12.6 µM [fluorescent, side channel, partial curve]",–
CN(C)c1ncc2nc(-c3ccc(Cl)cc3)c(=O)n(C)c2n1,–,inactive: 18.1%
O=C(OCC(=O)c1ccc[nH]1)c1ccccc1,–,inactive: -4.5%
CCOC(=O)/C(=N\Nc1ccccc1[N+](=O)[O-])c1csc(Nc2ccccc2)n1,"inconclusive: 3.98 µM [quencher, side channel, partial curve]",–
Nc1ccc(-n2nnnc2CN2CCOCC2)cc1,–,inactive: -9.16%
CC1=C(C#N)C(c2cn(-c3ccccc3)nc2-c2cccs2)C(C#N)=C(C)N1,"inconclusive: 7.94 µM [quencher, side channel, partial curve]",–
Cc1ccc(-c2nc3ccccc3o2)cc1NC(=S)NC(=O)/C=C/c1ccco1,"inconclusive: 22.4 µM [quencher, side channel, single point]",–
NC1=NC(=O)/C(=C/c2cccc(-c3ccc(S(N)(=O)=O)cc3)c2)S1,"inconclusive: 7.08 µM [inhibitor, single point]",–
Cc1ccccc1-c1nc(-c2ccc(NC(=O)c3ccc4c(c3)OCO4)cc2)no1,"inconclusive: 8.91 µM [quencher, side channel, partial curve]",–
CCn1cc(C(=O)NNC(=O)c2ccc(Cl)cc2)c(=O)c2ccc(C)nc21,"inconclusive: 3.55 µM [inhibitor, partial curve]",–
O=C1CCN(Cc2ccccc2)CCN1[C@H](CO)c1ccccc1,"inconclusive: 17.8 µM [inhibitor, partial curve]",–
O=C(O)c1cc(-c2ccc3ccccc3c2)nc2ccc(F)cc12,"inconclusive: 31.6 µM [quencher, side channel, partial curve]",–
COc1ccc(-c2ccccc2)cc1NC(=O)c1cccs1,"inconclusive: 14.1 µM [quencher, side channel, partial curve]",–
COc1cccc(NC(=O)CC(=O)c2ccc([N+](=O)[O-])cc2)c1,"inconclusive: 25.1 µM [quencher, side channel, partial curve]",–
